# Source: the BET-seq Pho4 binding data (Le et al. 2018)
# The list shows a part of the results. Values were computed here from the reads of four pooled replicates and scatter widely.
# Target: T1, Pho4 (S. cerevisiae) (UniProt P07270)
# T1 sequence: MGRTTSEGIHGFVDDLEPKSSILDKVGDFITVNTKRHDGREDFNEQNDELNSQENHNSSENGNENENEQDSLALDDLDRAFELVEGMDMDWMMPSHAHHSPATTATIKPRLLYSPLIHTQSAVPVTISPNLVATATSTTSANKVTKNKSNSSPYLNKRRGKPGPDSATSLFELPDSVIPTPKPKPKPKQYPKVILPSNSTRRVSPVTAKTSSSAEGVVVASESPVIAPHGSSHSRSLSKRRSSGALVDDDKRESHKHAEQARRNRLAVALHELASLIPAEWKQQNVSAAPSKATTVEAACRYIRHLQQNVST
# Assay: relative binding free energy (BET-seq); higher = weaker binding
# Conditions: reference: library average
row,Sequence,relative binding free energy
1,TTGTGCACGTGGGCTG,-0.15 kcal/mol
2,TACGTCACGTGGCGGG,-0.11 kcal/mol
3,TGGTTCACGTGGCATC,0.3 kcal/mol
4,GTGAACACGTGTTGGA,0.04 kcal/mol
5,TGTATCACGTGATGGC,0.26 kcal/mol
6,TTATGCACGTGGTCGA,-0.07 kcal/mol
7,GGGCGCACGTGTGGCC,0.01 kcal/mol
8,AGGTTCACGTGTGGCT,0.21 kcal/mol
9,TATGACACGTGTGGTG,0.08 kcal/mol
10,TGAGGCACGTGGGCTA,-0.31 kcal/mol
11,GGTGCCACGTGGGCGA,-0.32 kcal/mol
12,CATGTCACGTGGGTCT,-0.06 kcal/mol
13,AGAGTCACGTGTTGGC,0.14 kcal/mol
14,GTGCTCACGTGATGTT,0.46 kcal/mol
15,TTGGACACGTGAGTAT,0.29 kcal/mol
16,AAGTACACGTGGAATG,0.18 kcal/mol
17,GTGTTCACGTGTGCTC,0.29 kcal/mol
18,TTCGTCACGTGGAGGT,0.05 kcal/mol
19,TCATTCACGTGGAGGG,0.36 kcal/mol
20,GGGGACACGTGGGCGT,-0.11 kcal/mol
21,GTTGGCACGTGAGGGG,0.22 kcal/mol
22,TGGGTCACGTGAAGGT,0.39 kcal/mol
23,TGGTTCACGTGATGGA,0.39 kcal/mol
24,GTGATCACGTGGTATG,0.03 kcal/mol
25,GGAGTCACGTGTAGGT,0.11 kcal/mol

row,Sequence,relative binding free energy
1,AGGGGCACGTGGAGTG,-0.06 kcal/mol
2,TGGTGCACGTGGGAGT,-0.06 kcal/mol
3,TGTGTCACGTGGTCGC,0.04 kcal/mol
4,AGTGGCACGTGGGGAT,-0.15 kcal/mol
5,CGTTACACGTGCAGGT,0.12 kcal/mol
6,ATTGGCACGTGTGTAA,-0.07 kcal/mol
7,ATTATCACGTGATTAA,0.31 kcal/mol
8,AGATTCACGTGGGGAT,0.16 kcal/mol
9,GGGTGCACGTGACGAT,0.03 kcal/mol
10,TGGATCACGTGATTCT,0.32 kcal/mol
11,ATTTTCACGTGATACG,0.21 kcal/mol
12,TGATACACGTGTGTTA,0.05 kcal/mol
13,TCGAGCACGTGTGTGG,-0.1 kcal/mol
14,TGGGGCACGTGATCGT,-0.03 kcal/mol
15,CTTTTCACGTGGTGCA,0.19 kcal/mol
16,GTTTTCACGTGTCGCG,0.25 kcal/mol
17,ATTTCCACGTGTTTGT,0.04 kcal/mol
18,GGGTTCACGTGACCGG,0.34 kcal/mol
19,TTATCCACGTGAATGG,0.46 kcal/mol
20,TGGTACACGTGCATTG,0.03 kcal/mol
21,TGTTCCACGTGTTTTA,0.14 kcal/mol
22,GATCGCACGTGGGTTA,-0.04 kcal/mol
23,AAGTTCACGTGTATGT,0.27 kcal/mol
24,CTGTGCACGTGTGTCG,-0.02 kcal/mol
25,GGGCGCACGTGTAGTG,-0.04 kcal/mol

row,Sequence,relative binding free energy
1,ATCCGCACGTGTTTGG,-0.07 kcal/mol
2,AGTTTCACGTGCAGTT,0.21 kcal/mol
3,GGGATCACGTGCGAAT,0.29 kcal/mol
4,GGGTTCACGTGGAGCT,0.36 kcal/mol
5,TATGCCACGTGGAAGG,0 kcal/mol
6,CGTTGCACGTGGGGAG,-0.1 kcal/mol
7,AATTGCACGTGAGAAT,0.23 kcal/mol
8,AAATGCACGTGTTGGA,0.06 kcal/mol
9,TTAGACACGTGCGGTT,-0.02 kcal/mol
10,TTTTGCACGTGTTGAT,0.15 kcal/mol
11,GTGTTCACGTGCAGTT,0.33 kcal/mol
12,GCTGACACGTGGGTAT,0.06 kcal/mol
13,AGGTTCACGTGTTGGT,0.37 kcal/mol
14,CAGGCCACGTGTAGGG,-0.09 kcal/mol
15,GTTCGCACGTGTTGTG,0.1 kcal/mol
16,CTGGGCACGTGGGAGT,-0.27 kcal/mol
17,AGCAGCACGTGGAGTT,0.03 kcal/mol
18,GTGGGCACGTGGTATG,-0.15 kcal/mol
19,CTTTGCACGTGGGGGA,-0.13 kcal/mol
20,TTGGGCACGTGTCGAG,-0.15 kcal/mol
21,TCGGGCACGTGATAGT,-0.14 kcal/mol
22,GGCGGCACGTGAGAAT,0.35 kcal/mol
23,GTATTCACGTGGAATA,0.31 kcal/mol
24,CGTCACACGTGTGTGG,0.12 kcal/mol
25,ATAGGCACGTGGTTCG,-0.1 kcal/mol

row,Sequence,relative binding free energy
1,GGGGGCACGTGAAACG,0.01 kcal/mol
2,TGGGTCACGTGGTCAG,0.07 kcal/mol
3,CAAGGCACGTGAGGTG,0.09 kcal/mol
4,ACGTTCACGTGGATAT,0.26 kcal/mol
5,TTACACACGTGTGAGT,0.1 kcal/mol
6,ATTAGCACGTGTTTGG,-0.09 kcal/mol
7,TAGTTCACGTGAGCGG,0.27 kcal/mol
8,TATTCCACGTGGGGCG,0 kcal/mol
9,TTCGTCACGTGAGTAG,0.22 kcal/mol
10,GAGTGCACGTGCTGGA,0.1 kcal/mol
11,ATATTCACGTGCGGAT,0.16 kcal/mol
12,GGTTACACGTGGTGGG,0.14 kcal/mol
13,GCTTTCACGTGGCGTT,0.27 kcal/mol
14,ATACACACGTGGTTGG,-0.13 kcal/mol
15,TTGGTCACGTGGCAGG,0.12 kcal/mol
16,GGAGACACGTGGTCGG,-0.06 kcal/mol
17,TTAGTCACGTGTTCGA,0.11 kcal/mol
18,GTTATCACGTGATATA,0.24 kcal/mol
19,TGTAACACGTGCGGTG,0.04 kcal/mol
20,ATGGTCACGTGAAAAT,0.45 kcal/mol
21,TTAATCACGTGGTCAG,0 kcal/mol
22,ACGTTCACGTGGGTTC,0.15 kcal/mol
23,TAGTTCACGTGACGGG,0.29 kcal/mol
24,GTTGACACGTGACGGT,0.09 kcal/mol
25,GTGCACACGTGTGGTT,0.15 kcal/mol

row,Sequence,relative binding free energy
1,GGGATCACGTGGAAAT,0.23 kcal/mol
2,GTTTCCACGTGATTTT,0.27 kcal/mol
3,GTTTGCACGTGTGTGC,0.18 kcal/mol
4,TGTGGCACGTGCAAGA,-0.15 kcal/mol
5,AGGTGCACGTGTAACT,0.01 kcal/mol
6,GTGTGCACGTGAGTGT,0.27 kcal/mol
7,ATATCCACGTGTGGGT,-0.22 kcal/mol
8,CGTTACACGTGTGTAA,0.2 kcal/mol
9,GGCAGCACGTGGGGCT,-0.14 kcal/mol
10,CGGGCCACGTGTTGGT,-0.2 kcal/mol
11,CTCGTCACGTGGTAGG,0.02 kcal/mol
12,ACAGGCACGTGGTGGT,-0.15 kcal/mol
13,TTTGTCACGTGAACGC,0.29 kcal/mol
14,GGGCTCACGTGTTAGA,0.27 kcal/mol
15,GTTTCCACGTGTATTG,0.05 kcal/mol
16,GTCTTCACGTGAGGGG,0.34 kcal/mol
17,AAAGGCACGTGGCTGT,-0.3 kcal/mol
18,AATGTCACGTGGTAGC,0.14 kcal/mol
19,GCAATCACGTGTGGGG,0.2 kcal/mol
20,TCTTGCACGTGTCGGG,0.12 kcal/mol
21,ATATACACGTGATGAG,0.16 kcal/mol
22,AGTAGCACGTGAAGGG,0.2 kcal/mol
23,CGGTTCACGTGTGAAT,0.32 kcal/mol
24,TTTCGCACGTGTTTTT,0.05 kcal/mol
25,GCTGGCACGTGGGATT,-0.14 kcal/mol

row,Sequence,relative binding free energy
1,TAACGCACGTGTATGT,-0.14 kcal/mol
2,ATTTTCACGTGCTGCG,0.24 kcal/mol
3,TTCTTCACGTGTGGAT,0.4 kcal/mol
4,TGGTGCACGTGACGCG,-0.04 kcal/mol
5,AATGACACGTGAGTTG,0.23 kcal/mol
6,ATATGCACGTGTGCGG,-0.03 kcal/mol
7,AGGGGCACGTGTTCGG,-0.16 kcal/mol
8,TATGACACGTGCTAGG,-0.05 kcal/mol
9,TATATCACGTGGGCTA,-0.07 kcal/mol
10,ATTTACACGTGGTAAT,0.05 kcal/mol
11,TTTACCACGTGGTGTG,-0.13 kcal/mol
12,CAGTTCACGTGTAGGG,0.17 kcal/mol
13,CGGGGCACGTGCAATG,-0.02 kcal/mol
14,GGGAACACGTGTTTGT,0.09 kcal/mol
15,ATTCTCACGTGATTTG,0.34 kcal/mol
16,AGGTTCACGTGAGTCG,0.32 kcal/mol
17,AAGTACACGTGTATAG,0.06 kcal/mol
18,TTTTGCACGTGTATAG,0.08 kcal/mol
19,GATATCACGTGGGCGA,0.21 kcal/mol
20,AAGGCCACGTGGGGGC,-0.31 kcal/mol
21,GTCAGCACGTGTTTGT,-0.03 kcal/mol
